Experimental findings from paper PMC12820563, “FoxP3 forms a head-to-head dimer in vivo and stabilizes its multimerization on adjacent microsatellites” are described below.

The list shows a part of the results.

In the assay the target is T1, MBP-FoxP1dN (Mus musculus, UniProt P58462 326-579).
T1 sequence: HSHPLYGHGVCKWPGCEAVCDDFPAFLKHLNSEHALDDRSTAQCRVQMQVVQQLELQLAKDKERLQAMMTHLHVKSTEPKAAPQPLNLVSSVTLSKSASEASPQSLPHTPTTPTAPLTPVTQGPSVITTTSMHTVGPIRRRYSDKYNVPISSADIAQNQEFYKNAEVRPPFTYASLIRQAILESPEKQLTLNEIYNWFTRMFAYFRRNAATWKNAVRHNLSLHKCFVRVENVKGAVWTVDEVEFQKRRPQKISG
Description: PD-seq (MBP pull-down with sequencing); 20 mM Tris-HCl pH 7.5, 100 mM NaCl, 1.5 mM MgCl2, 0.4 uM protein, 0.1 uM dsDNA library, 30 min, room temperature, amylose pull-down; high values mean tight binding. Conditions: protein: recombinant; tags: His6-MBP; chain copies: 2; dsDNA, one strand shown. The essentials:
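His6-MBP-tagged mouse FoxP3 or FoxP1 fragment lacking the N-terminus, expressed in E. coli, was mixed at 0.4 µM with 0.1 µM Klenow-filled double-stranded degenerate DNA library. Incubation was 30 min at room temperature in Tris pH 7.5 buffer with NaCl and MgCl2. Complexes were caught on amylose resin and washed three times; DNA was released with proteinase K, PCR-barcoded and Illumina-sequenced. Binding is reads-per-million enrichment, pull-down over input, with replicates pooled.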
Turning to “GATGATTGTTCTCCCAGCTGATGAATTACTAGAATCGAGTAAACAAATTTTCCTAATCTTTCTGTTCAAGCGCCATCTAC”, the binding signal was 1.23 RPM ratio (pull-down/input).

Regarding “GATGATTGTTCTCCCAGCTGATGAATTTTGTAGATCGAGTAAACAAATTTTCCTAATCTTTCTGTTCAAGCGCCATCTAC”, the binding signal is 0.951 RPM ratio (pull-down/input).

With “GATGATTGTTCTCCCAGCTGATGAATTCTATCACTCGAGTAAACAAATTTTCCTAATCTTTCTGTTCAAGCGCCATCTAC”, the binding signal is 0.873 RPM ratio (pull-down/input).

“GATGATTGTTCTCCCAGCTGATGAATTAACCTGCTCGAGTAAACAAATTTTCCTAATCTTTCTGTTCAAGCGCCATCTAC”: the binding signal was 0.79 RPM ratio (pull-down/input).

On to “GATGATTGTTCTCCCAGCTGATGAATTGAATAAGTCGAGTAAACAAATTTTCCTAATCTTTCTGTTCAAGCGCCATCTAC”, for which the binding signal is 0.918 RPM ratio (pull-down/input).

On to “GATGATTGTTCTCCCAGCTGATGAATTCTCACTTTCGAGTAAACAAATTTTCCTAATCTTTCTGTTCAAGCGCCATCTAC”, for which the binding signal is 0.899 RPM ratio (pull-down/input).

For the sequence “GATGATTGTTCTCCCAGCTGATGAATTAAACTGGTCGAGTAAACAAATTTTCCTAATCTTTCTGTTCAAGCGCCATCTAC”, the binding signal is 0.847 RPM ratio (pull-down/input).

For “GATGATTGTTCTCCCAGCTGATGAATTACCCATCTCGAGTAAACAAATTTTCCTAATCTTTCTGTTCAAGCGCCATCTAC”, the binding signal is 0.901 RPM ratio (pull-down/input).

As to “GATGATTGTTCTCCCAGCTGATGAATTCCTAAAGTCGAGTAAACAAATTTTCCTAATCTTTCTGTTCAAGCGCCATCTAC”, the binding signal is 0.796 RPM ratio (pull-down/input).

Turning to “GATGATTGTTCTCCCAGCTGATGAATTAGGCTAATCGAGTAAACAAATTTTCCTAATCTTTCTGTTCAAGCGCCATCTAC”, the binding signal is 0.966 RPM ratio (pull-down/input).

“GATGATTGTTCTCCCAGCTGATGAATTTACCGCCTCGAGTAAACAAATTTTCCTAATCTTTCTGTTCAAGCGCCATCTAC”: the binding signal was 1.17 RPM ratio (pull-down/input).

On to “GATGATTGTTCTCCCAGCTGATGAATTCAAGGACTCGAGTAAACAAATTTTCCTAATCTTTCTGTTCAAGCGCCATCTAC”, for which the binding signal was 0.841 RPM ratio (pull-down/input).

Take “GATGATTGTTCTCCCAGCTGATGAATTCCGGGGCTCGAGTAAACAAATTTTCCTAATCTTTCTGTTCAAGCGCCATCTAC”: the binding signal is 0.755 RPM ratio (pull-down/input).

With “GATGATTGTTCTCCCAGCTGATGAATTTGCGACTTCGAGTAAACAAATTTTCCTAATCTTTCTGTTCAAGCGCCATCTAC”, the binding signal was 1.14 RPM ratio (pull-down/input).

On to “GATGATTGTTCTCCCAGCTGATGAATTATCAGAGTCGAGTAAACAAATTTTCCTAATCTTTCTGTTCAAGCGCCATCTAC”, for which the binding signal was 0.888 RPM ratio (pull-down/input).

Consider “GATGATTGTTCTCCCAGCTGATGAATTGATCGAATCGAGTAAACAAATTTTCCTAATCTTTCTGTTCAAGCGCCATCTAC”, for which the binding signal was 1.11 RPM ratio (pull-down/input).

Turning to “GATGATTGTTCTCCCAGCTGATGAATTGTATTTATCGAGTAAACAAATTTTCCTAATCTTTCTGTTCAAGCGCCATCTAC”, the binding signal is 2.72 RPM ratio (pull-down/input).

Consider “GATGATTGTTCTCCCAGCTGATGAATTTCACGCCTCGAGTAAACAAATTTTCCTAATCTTTCTGTTCAAGCGCCATCTAC”, for which the binding signal is 0.864 RPM ratio (pull-down/input).

Regarding “GATGATTGTTCTCCCAGCTGATGAATTTACCAATTCGAGTAAACAAATTTTCCTAATCTTTCTGTTCAAGCGCCATCTAC”, the binding signal is 1.48 RPM ratio (pull-down/input).

Take “GATGATTGTTCTCCCAGCTGATGAATTTCCGCGCTCGAGTAAACAAATTTTCCTAATCTTTCTGTTCAAGCGCCATCTAC”: the binding signal is 0.891 RPM ratio (pull-down/input).

In the case of “GATGATTGTTCTCCCAGCTGATGAATTATCCGGATCGAGTAAACAAATTTTCCTAATCTTTCTGTTCAAGCGCCATCTAC”, the binding signal was 0.88 RPM ratio (pull-down/input).

As to “GATGATTGTTCTCCCAGCTGATGAATTACCGATTTCGAGTAAACAAATTTTCCTAATCTTTCTGTTCAAGCGCCATCTAC”, the binding signal was 1.05 RPM ratio (pull-down/input).

For the sequence “GATGATTGTTCTCCCAGCTGATGAATTCCAAAGATCGAGTAAACAAATTTTCCTAATCTTTCTGTTCAAGCGCCATCTAC”, the binding signal is 0.913 RPM ratio (pull-down/input).

Consider “GATGATTGTTCTCCCAGCTGATGAATTAGATGTCTCGAGTAAACAAATTTTCCTAATCTTTCTGTTCAAGCGCCATCTAC”, for which the binding signal is 0.931 RPM ratio (pull-down/input).

Turning to “GATGATTGTTCTCCCAGCTGATGAATTTGCACAGTCGAGTAAACAAATTTTCCTAATCTTTCTGTTCAAGCGCCATCTAC”, the binding signal was 0.979 RPM ratio (pull-down/input).

As for “GATGATTGTTCTCCCAGCTGATGAATTTCCTTCATCGAGTAAACAAATTTTCCTAATCTTTCTGTTCAAGCGCCATCTAC”, the binding signal is 0.931 RPM ratio (pull-down/input).

With “GATGATTGTTCTCCCAGCTGATGAATTTGTTTCTTCGAGTAAACAAATTTTCCTAATCTTTCTGTTCAAGCGCCATCTAC”, the binding signal was 1.7 RPM ratio (pull-down/input).

Turning to “GATGATTGTTCTCCCAGCTGATGAATTTGCGTTGTCGAGTAAACAAATTTTCCTAATCTTTCTGTTCAAGCGCCATCTAC”, the binding signal is 1.29 RPM ratio (pull-down/input).

As for “GATGATTGTTCTCCCAGCTGATGAATTCGGACGTTCGAGTAAACAAATTTTCCTAATCTTTCTGTTCAAGCGCCATCTAC”, the binding signal was 0.853 RPM ratio (pull-down/input).

Consider “GATGATTGTTCTCCCAGCTGATGAATTGAGCAGGTCGAGTAAACAAATTTTCCTAATCTTTCTGTTCAAGCGCCATCTAC”, for which the binding signal is 0.751 RPM ratio (pull-down/input).

For “GATGATTGTTCTCCCAGCTGATGAATTCGACTGATCGAGTAAACAAATTTTCCTAATCTTTCTGTTCAAGCGCCATCTAC”, the binding signal was 0.864 RPM ratio (pull-down/input).
